Measured values from PubChem BioAssay AID1346428 (National Center for Advancing Translational Sciences (NCATS), 2018).
The whole screen tested about 48,000 compounds, of which about 1,200 (2.5%) were called active. Another 2% or so got no clear call; they are omitted.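 How the source made its calls: active means activation of at least 60% and not above a set upper limit (about 1 call in 100 departs from these limits); inconclusive means activation of 40% to 60%, or above that upper limit; inactive means activation under 40%.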 The list shows a part of the results.

Each molecule was assayed against Probable G-protein coupled receptor 32 (Homo sapiens) (UniProt O75388) (assay: qHTS for Agonists of Human Resolvin D1 Receptor DRV1). Conditions: CHO-K1 GPR32 beta-arrestin PathHunter luminescence, 90 min; at 76.9 µM; stronger effect = higher value; zero percent set by DMSO-only wells.
Outline: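 GPR32 activation in stably transfected CHO-K1 cells, detected as beta-arrestin recruitment by enzyme-fragment complementation. Compound exposure: 90 min, 37 °C.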
Further: 0% is about no effect.

UniProt O75388, sequence (O75388 whole entry, looked up, the tested form may be a part): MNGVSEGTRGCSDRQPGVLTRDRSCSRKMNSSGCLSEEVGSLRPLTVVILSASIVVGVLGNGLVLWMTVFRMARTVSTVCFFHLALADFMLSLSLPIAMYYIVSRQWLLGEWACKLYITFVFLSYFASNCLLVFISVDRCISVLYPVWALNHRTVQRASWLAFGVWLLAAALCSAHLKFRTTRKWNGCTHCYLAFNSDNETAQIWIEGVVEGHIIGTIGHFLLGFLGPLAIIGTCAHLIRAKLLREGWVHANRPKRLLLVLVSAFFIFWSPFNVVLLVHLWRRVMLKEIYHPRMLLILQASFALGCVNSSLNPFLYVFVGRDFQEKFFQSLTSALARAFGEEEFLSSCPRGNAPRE

| SMILES | activation |
| --- | --- |
| O=C(CCCCCCC(=O)Nc1ccccc1)NO | inactive: 0.441% |
| COc1ccc(-n2nc3ccc(NC(=O)c4ccc(-c5cc(Cl)ccc5Cl)o4)cc3n2)cc1 | inactive: -8.38% |
| CCc1ccc2c(-c3cccc(Cl)c3)nc(=O)n(CC)c2n1 | inactive: -5.33% |
| COc1ccc(-n2ccnc(NCc3ccc(Cl)cc3)c2=O)cc1 | active: 60.3% |
| COc1ccc(NC(=O)CCc2nnc3n(C)c(=O)c4sccc4n23)cc1 | inactive: -8.7% |
| C=CCc1ccccc1OCCSc1nc(-c2ccc(C(C)(C)C)cc2)nc2cc(=O)[nH]n12 | inactive: -1.93% |
| Clc1cccc(N2CCN(c3nc4ccccc4n4cnnc34)CC2)c1 | inactive: -13.2% |
| Cc1cc(C)cc(NC(=O)CCC(=O)N2Cc3ccccc3Oc3ncccc32)c1 | inactive: -14.2% |
| CCN(c1cc(C)cc(C)c1)S(=O)(=O)c1nnc(NC(=O)C2CCCCC2)s1 | inactive: -18.4% |
| O=C(Nc1ccc(Br)c2cccnc12)c1cccc2ccccc12 | inactive: 31.5% |
| CC(C)ON([C@@H](C(=O)NO)C(C)C)S(=O)(=O)c1ccc(-c2ccccc2)cc1 | inactive: -9.02% |
| COc1cccc(NC(=O)C2CCCN(S(=O)(=O)c3c(C)[nH]c(=O)[nH]c3=O)C2)c1 (stereo not drawn) | inactive: 6.06% |
| CCCc1cnc2c(c1SCC(=O)N(C)c1ccccc1)c(=O)n(C)c(=O)n2C | inactive: -26.1% |
| Cc1c(Cl)ccc2sc(NC(=O)c3ccc(S(=O)(=O)N4CCCc5ccccc54)cc3)nc12 | inactive: -10.5% |
| Cc1c(Cl)cccc1-c1ccc(CNc2ccc3[nH]c(=O)[nH]c3c2)o1 | inactive: 19.7% |
| Cc1ccc(CCNC(=O)c2cc3sccc3n2Cc2ccc(C)cc2)cc1 | inactive: -4.97% |
| Cc1cc(C)cc(-n2c(SCC(=O)N3CCCCC3)nc3c([nH]c4ccccc43)c2=O)c1 | inactive: 5.06% |
| CC1CCN(S(=O)(=O)c2ccc3c(c2)oc(=O)n3CC(=O)NCc2ccc(F)cc2)CC1 | inactive: 17.8% |
| COc1cc2ccccc2cc1C(=O)Nc1ccc2oc(-c3ccc(F)cc3)nc2c1 | inactive: 8.56% |
| CCc1ccccc1NC(=O)c1nnn(-c2ccc(F)cc2)c1C | inactive: -5.59% |
| CCOc1ccc(NC(=O)Cn2c(=O)n(Cc3ccco3)c(=O)c3oc4ccccc4c32)cc1 | inactive: -16.5% |
| COc1ccc(NC(=O)c2oc3ccccc3c2NC(=O)c2cccc(F)c2)c(OC)c1 | inactive: 13.8% |
| CC(CCc1ccccc1)NC(=O)Cn1ncc2c3ccccc3n(Cc3ccc(F)cc3)c2c1=O (stereo not drawn) | inactive: -10.2% |
| CCCn1c(=O)c2sccc2n2c(CCCC(=O)NCCc3ccc(Cl)cc3)nnc12 | inactive: -11.3% |
| Cc1ccc(CNC(=O)c2cc3sccc3n2Cc2ccc(Cl)cc2)cc1 | inactive: 42.5% |
| CC(C)c1ccc(S(=O)(=O)c2nnn3c2nc(NCCc2ccccc2)c2sccc23)cc1 | inactive: -13.5% |
| Cc1nn(C(=O)c2cccc([N+](=O)[O-])c2C)c(C)c1S(=O)(=O)N1CCOCC1 | inactive: -2.09% |

| SMILES | activation |
| --- | --- |
| CC(=O)Nc1ccc(S(=O)(=O)NCC2CCC(C(=O)NCCc3ccccc3)CC2)cc1 (stereo not drawn) | inactive: 0.178% |
| COc1cc(-c2ccno2)ccc1S(=O)(=O)N1CCN(c2cc(C)ccc2C)CC1 | inactive: -17.5% |
| COCC(=O)Oc1c(Sc2ccc(C)cc2)c(C)nn1C(C)(C)C | inactive: 37.4% |
| CCO[C@H](Cc1ccc(OCCc2ccc(OS(C)(=O)=O)cc2)cc1)C(=O)O | active: 75.6% |
| Cc1ccc(NC(=O)CC(C)S(=O)(=O)c2ccc3c(c2)NC(=O)CO3)c(C)c1 (stereo not drawn) | active: 73.9% |
| Cc1cc(C)cc(Oc2nc3c(C)cccn3c(=O)c2/C=C(\C#N)c2nc3ccccc3[nH]2)c1 | inactive: 12.8% |
| COc1cccc(N2CC(NC(=O)C(c3ccccc3)c3ccccc3)CC2=O)c1 (stereo not drawn) | inactive: -14.9% |
| c1cnc2cc3c(cc2n1)C1CNCC3C1 | inactive: 4.53% |
| COc1ccccc1/C=C/c1nc(C#N)c(N2CCCCC2)o1 | inactive: -30.1% |
| Cc1ccc2nc(-c3ccsc3)c(Nc3ccccc3C)n2c1 | inactive: -30.5% |
| COCCNC(=O)Cc1ccc(NC(=O)N2CCCCc3ccccc32)cc1 | inactive: -0.559% |
| O=C(NCc1ccc(F)cc1)c1ccc(CSCc2cccc(Cl)c2)o1 | inactive: 22.1% |
| O=C1c2ccccc2C(=O)C1(c1ccccc1)N1CCN(c2cccc(Cl)c2)CC1 | inactive: -19.8% |
| Cc1ccc(N2CC(NC(=O)/C=C\c3ccc4c(c3)OCO4)CC2=O)cc1C (stereo not drawn) | inactive: -4.93% |
| Cc1ccc(-c2cc(C(F)(F)F)n3nc(C(=O)Nc4ccc(Cl)cc4Cl)cc3n2)cc1 | inactive: -0.257% |
| Cc1ccc(NC(=O)CSc2ncc3c(n2)-c2ccccc2N(Cc2cccc(F)c2)S3(=O)=O)cc1F | inactive: -8.54% |
| Cn1cc(CN(C(=O)Nc2ccc(Cl)c(Cl)c2)C2CCCCC2)c2ccccc21 | inactive: -5.88% |
| COCCNC(=O)c1cnn(-c2ccc(C)cc2C)c1C1CCN(C(=O)OC(C)(C)C)CC1 | inactive: -1.26% |
| COc1ccc(-n2c(/C=C/c3ccccc3F)nc3cc(OC)c(OC)cc3c2=O)cc1Cl | inactive: -20.1% |
| COC(=O)c1scc(-c2ccccc2)c1S(=O)(=O)Nc1ccccc1 | inactive: -0.985% |
| Cc1ccccc1Cn1c(C(=O)O)c(CNCc2cccc(F)c2)c2ccccc21 | inactive: -13.7% |
| COc1ccccc1N1CCN(C(=O)Cn2ncc3c([nH]c4ccccc43)c2=O)CC1 | inactive: -20.5% |
| CCOC(=O)c1ccccc1NC(=O)Cn1c(=O)n(Cc2nc(-c3ccccc3)no2)c(=O)c2ccccc21 | inactive: -12.2% |
| Cc1ccc(CNC(=O)CCCCn2c(=O)c3ccccc3n(Cc3c(C)cc(C)cc3C)c2=O)cc1 | inactive: 1.54% |
| COc1cccc(NC(=O)CSC2=Nc3ccccc3C3=NC(CC(=O)NCCc4ccccc4)C(=O)N23)c1 (stereo not drawn) | inactive: -2.47% |
| CCOCCCNC(=O)NC(C)c1c(-n2cccc2)sc2c1CCN(CC)C2 (stereo not drawn) | inactive: -7.67% |
